# Reference: ChEMBL document CHEMBL4888484, “Replenishing the malaria drug discovery pipeline: Screening and hit evaluation of the MMV Hit Generation Library 1 (HGL1) against asexual blood stage Plasmodium falciparum ,using a nano luciferase reporter read-out” (2022)
# Hit rate of the full screen: of about 4,800 compounds, about 410 (8.5%) showed an effect of 50% or more. Some of the results follow.
# Tested on: Plasmodium falciparum
# Assay: Confirmatory screen in NF54 pLDH assay, in single point, at 2uM, 72h
# Format: functional, Erythrocyte
# Settings: timepoint 72 hour
row,SMILES,% Inhibition [%]
1,C#CCN(C(=O)c1cnn(CC(C)C)c1C(F)F)c1nccs1,-12
2,Cc1cccc(S(=O)(=O)Nc2ccc3nc(NC(=O)c4ccccc4)sc3c2)c1,7
3,Cc1cc(NC(=O)c2ccn(-c3nc(-c4cnn(C)c4)cc(C(F)(F)F)n3)n2)no1,11
4,C[C@H]1CCN(c2nc(-c3ccccn3)nc3c2CCC3)C1,93
5,O=C(c1cccs1)N1CCN(C2CCCCC2)CC1,-22
6,O=C(Nc1ccc(N2CCCCCC2)cc1C(=O)O)c1ccc(Cl)cc1,9
7,Cc1nc(N2CCOCC2)nc2c1CCCC2,6
8,CN(C)c1ccc(-c2nc3[nH]cnn3c2Nc2ccccc2)cc1,10
9,C[C@H](NCCc1ccccc1)c1cccc(COc2nn3c(C(F)(F)F)nnc3c3ccccc23)n1,7
10,Cc1cnc(CNC(=O)Nc2nnc3ccccn23)s1,2
11,Cc1nc2c(sc(=S)n2-c2ccc(Cl)c(Cl)c2)c(=O)[nH]1,2
12,N#CCCN(C(=O)COC(=O)c1ccc(S(=O)(=O)N2CCOCC2)cc1)c1ccccc1,11
13,CCc1cccc(NC(=O)C2CCN(c3c(C)n(-c4ccccc4)c(=O)n(CC(C)C)c3=O)CC2)c1,5
14,Cn1c(-c2ccc(Cl)c(Cl)c2)c[n+](CC(=O)c2ccc(F)cc2)c1N,-12
15,COc1ccc(CNCCC2C(C)CN(C)C(C)C2Cc2ccccc2)cc1 (stereo not given),66
16,CC(C)(NCCc1c[nH]c2ccccc12)c1nnnn1Cc1cccnc1,14
17,CS(=O)(=O)N1CC[C@H](CC(=O)NCCCc2ccccc2)C1,8
18,O=C(O)C[C@@H]1CCN(CC2CC2)C[C@@H]1Cc1nc2ccccc2[nH]1,6
19,CN(C)c1ccc(C(=O)N[C@@]2(C)CCS(=O)(=O)C2)cc1,-2
20,CC(C)N1CCC2(CC1)N=C(c1ccc3c(c1)OCO3)C[C@@H](c1cc(Cl)ccc1O)N2,26
21,CC(C)(C)c1ccc(-c2cc(C[C@H]3CNCC[C@H]3CC(=O)NCCN3CCOCC3)no2)cc1,20
22,CC(=O)c1ccc(N2CCN(c3nccn4nc(-c5ccccc5C)cc34)CC2)cc1,-10
23,O=C1CCc2[nH]c(=O)n(C3CCCCC3)c(=O)c21,11
24,CCN1C(=O)[C@]2(NC3(CCCCC3)C(=O)N2CC)c2ccccc21,-11
25,CCn1cc(-c2nc(-c3ccccc3C)no2)c(=O)c2cc(F)c(N3CCCCC3)cc21,42

row,SMILES,% Inhibition [%]
1,Cc1ccc(OCn2cc(NS(=O)(=O)c3cnn(C)c3C)cn2)c(C)c1,5
2,C=CCNCc1ccc(Br)cc1,-20
3,O=C(NCC1CC2CCC1C2)N1CCOC(Cn2cccn2)C1 (stereo not given),-10
4,COc1cccc(N2CCN(C(=O)c3nn(-c4ccc(C)cc4)c(OC)cc3=O)CC2)c1,4
5,c1ccc(CNc2ncnc3c2cnn3-c2ccccn2)cc1,7
6,Nc1ncnc(NCc2cccnc2OCC(F)F)c1Cl,8
7,CC1CN(C(=O)C(Cc2ccccc2)NC(=O)c2ccccc2)CC(C)O1 (stereo not given),3
8,CC(C)C(=O)N1N=C(C(C)C)C[C@]1(O)C(F)(F)F,13
9,Cc1nnc(O)c(CNC(=O)COC2CCCC(C)C2)c1C (stereo not given),-4
10,O=C(N[C@H]1C[C@@H]2C[C@H]1CN2C(=O)c1cccc(C(F)(F)F)c1)c1ccccc1,10
11,O=C(Cn1c(=O)n(C2CC2)c(=O)c2snc(-c3ccccn3)c21)NCc1ccccc1,13
12,CC[C@@H](CO)Nc1ncc2cc3ccccc3nc2c1C#N,5
13,CCc1cc(C(=O)N2CCC(C)CC2)c2c(C3CC3)nn(-c3ccc(F)cc3)c2n1,14
14,O=C(Cn1nnc2c1CCCC2)NCc1ccc2cc[nH]c2n1,12
15,Cc1cc(C)cc(-n2c(=O)c3sccc3n(CC(=O)N[C@@H](C)CCc3ccccc3)c2=O)c1,-8
16,Cc1ccc(C)c(-n2c(=O)c3sccc3n(CC(=O)N3CC(C)CC(C)C3)c2=O)c1 (stereo not given),-6
17,COc1cc2ncc3c(-c4ccc(C)c(C)c4)n[nH]c3c2cc1OC,40
18,O=C1Nc2ccc(-c3ccccc3)cc2[C@@]1(O)C(F)(F)F,9
19,Cc1ccc(CNC(=O)c2csnn2)n1C,6
20,Cc1cc2ncn(CN3CC[C@@H](NC(=O)OC(C)(C)C)C3)c2cc1C,-7
21,C[C@H](O)CNCc1ccc(Cl)cc1Cl,1
22,CCn1cc(C)c(C(=O)O)c1CC(=O)NCc1ccc(F)cc1,-24
23,COc1cccc(-c2cc(C(=O)N3CCCN(C(=O)c4cc(-c5cccc(OC)c5)nc5ccccc45)CC3)c3ccccc3n2)c1,-26
24,CCC(NC(=O)c1c[nH]c(C)cc1=O)C(O)c1ccccc1F (stereo not given),10
25,Cc1ccc(Oc2ccccc2CNC(=O)[C@@H]2CCC(=O)N2)cc1,-20

row,SMILES,% Inhibition [%]
1,CCC1CCCC(NS(=O)(=O)CCC(C)(C)C)C1 (stereo not given),-12
2,CC1CCC(N(CC(=O)NC(N)=O)C2CC2)CC1 (stereo not given),9
3,Cc1ccsc1-c1noc([C@@H]2COCCN2C)n1,0
4,CNc1c(-n2cc(C(=O)OC)c(C(=O)OC)c2C#N)c(=O)n(C)c(=O)n1C,-17
5,CC(N=C1NC(=NC(C)c2ccccc2)c2ccccc21)c1ccccc1 (stereo not given),48
6,CCn1ccc(CN(C)C(=O)[C@H]2CCCN(S(=O)(=O)c3cnn(C)c3C)C2)n1,-4
7,Cc1nc2cccnc2n1-c1cc(C(=O)NCC[C@H](C)N2CCCC2)ccc1Cl,8
8,C[C@H](c1ccccc1)N1C(=O)[C@@H]2CN(C(=O)CC(C)(C)C)CCN2C1=O,-13
9,Cc1nnc(NC(=O)c2ccc3n[nH]c(=O)n3c2)s1,-22
10,Cn1c(CN2CCOC[C@@]23CCOC3)nnc1C1CC1,13
11,O=C(Nc1cc(C(F)(F)F)ccc1Cl)C1CCC(N2C(=O)c3cc(Cl)c(Cl)cc3C2=O)CC1 (stereo not given),-6
12,CC(C)(C)c1ccc(C(=O)C(=O)NC[C@H]2CCCO2)cc1,-15
13,Cc1ccc2c(c1)ncc1c(-c3ccccc3)nn(-c3ccc(F)cc3)c12,3
14,CC(C)c1cc(CNC(=O)N2CCCC[C@H]2c2cccc(F)c2)no1,6
15,Cn1nc(C2CC2)c2c(C(F)(F)F)cc(-c3ccco3)nc21,10
16,Cc1nc(Cn2nnc(NC(=O)c3cccc(F)c3)c2C)no1,8
17,Cc1nc2cccnc2n1-c1cc(C(=O)NCc2ccccc2Cl)ccc1Cl,9
18,CCc1ccc(-c2cc3n(n2)C[C@@](C)(C(=O)NC2CCCCC2)N(c2cc(C)cc(C)c2)C3=O)cc1,58
19,FC(F)(F)c1cnc(C[C@@H]2NCCc3ccccc32)c(Cl)c1,11
20,O=C(CCCCC(=O)n1nnc2ccccc21)n1nnc2ccccc21,-15
21,CCC(=O)Nc1ccc(-n2cnc(C(=O)NCc3ccco3)c2)nc1,-15
22,COC[C@H](O)CNC(=O)c1cccn1C1CC1,12
23,CCOc1nc(C)nc2cc(-c3ccccc3)n(Cc3ccccc3)c12,13
24,Cc1noc(C)c1NC(=O)CCS(=O)(=O)c1ccc2ccccc2c1,4
25,Cn1c(C(=O)Nc2ccc(S(N)(=O)=O)cc2)cc2occc21,-18

row,SMILES,% Inhibition [%]
1,Cc1cc(C)cc(NC(=O)Cc2nnc3ccc(C(=O)Nc4ccccc4)cn23)c1,8
2,Cn1cc(-c2noc(Cc3c(F)cccc3Cl)n2)ccc1=O,11
3,COc1ccc2cc3n(c2c1)C[C@](C(=O)NC1CCCCCC1)(c1ccccc1)N(Cc1cccc(Br)c1)C3=O,10
4,CC(C)CC(=O)N1CC[C@H](CC(=O)NCc2ccccc2)C1,12
5,COC(=O)c1ccc(N(Cc2ccccc2O)c2ncc(C(F)(F)F)cc2Cl)c(F)c1,-19
6,CCOc1ccc([C@@H](Nc2nc(C)cc(C)n2)c2cc(C)sc2NC(=O)c2ccccc2)cc1,8
7,c1cc(CN2CCC3(CC2)OCCO3)c2c(c1)OCCO2,9
8,Cc1csc(NC(=O)NCCc2cc(F)cc3c2OCOC3)n1,-14
9,CCOC(=O)CC1(S(=O)(=O)Nc2cccc3ccccc23)CC1,0
10,COc1cccc2nc(C[C@H]3CN(CC(C)C)CC[C@H]3CC(=O)O)[nH]c12,-7
11,CC(=O)c1nc2cc(F)c(N3CCOCC3)cc2nc1C,-13
12,CCOc1ccc2c(n1)CCN(C(=O)c1ccc(OC)cc1)C2,-5
13,CCn1ccc([C@H](C)NC(=O)c2cc(C)c(C)s2)n1,-4
14,Cc1ccc(NC(=O)N2CCCN(c3ccc(NC(=O)c4cccs4)cc3C(=O)NCc3ccc(F)cc3)CC2)cc1,21
15,O=C(NC1CCCC1)c1n[nH]c(=O)c2ccccc12,7
16,Cc1cccc(NC(=O)CCC(=O)OCC(F)(F)F)c1C,-1
17,CCN(CC)[C@@H](CNC(=O)CCc1c(C)nn(C)c1C)c1ccco1,5
18,O=C(C[C@H]1CCC(=O)N(CC2CC2)CC1)Nc1ccccc1F,3
19,CCN(CC)c1nc(Nc2ccc(Cl)c(Cl)c2)nc(Nc2cc(C)ccc2C)n1,8
20,O=C(COc1ccc(F)cc1)N1CCc2nc(OCC3CC3)ccc2C1,13
21,Cc1ccc(NC(=O)c2ccc3c(-c4ccccc4)onc3c2)cc1,-17
22,O=C(NCCc1nnc[nH]1)C1(Cc2ccccc2)CC2CCC1C2 (stereo not given),-5
23,COc1ccc(C(=O)Nc2cnccc2-n2nc(C)cc2C)cc1,0
24,COC[C@H](NC(=O)c1cccc(F)c1Cl)C(N)=O,-6
25,CN(C(=O)Cn1c(=O)n(-c2cc(F)cc(F)c2)c(=O)c2sccc21)c1ccccc1,9
